# Where a name gives a salt, the structure may show the parent alone. This is one part of the list. Most values come without repeats; read them as rough.
# Legend:
# [1] = test system: KB-3-1; experiment: growth inhibition relative to DMSO control (SRB); cervical cancer cells: KB-3-1 is the parent and KB-V1 overexpresses MDR1; SRB is the sulforhodamine B stain; higher = more growth inhibition; settings: 1 µM; 72 h
# [2] = test system: KB-V1; experiment: as above; settings: 1 µM; 72 h
# 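Further: Read-out is SRB optical density at 490 nm, with the control being wells given 0.5% DMSO vehicle, and compound added one day after cells were plated.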
Structure (SMILES),growth inhibition [1],growth inhibition [2]
Cc1ccc2c(=O)c3cccc(CC(=O)O)c3oc2c1C [DMXAA (Vadimezan)],29.6%,19.9%
CC(C)(C)Cn1c(N)nc2ccc(-c3[nH]c(C(C)(C)C)nc3-c3ccc(F)cc3)nc21,29.7%,23.4%
CC(C)C[C@@H](C(=O)N[C@H](C(=O)OC1CCCC1)c1ccccc1)[C@H](O)C(=O)NO [Tosedostat (CHR2797)],49.2%,20%
COc1cc2nc(N(C)CCCNC(=O)C3CCCO3)nc(N)c2cc1OC (stereo unspecified) [Alfuzosin HCl],12.4%,32.2%
CN(C)Cc1cccc(N/C(=C2\C(=O)Nc3cc(C(N)=O)ccc32)c2ccccc2)c1,17.4%,8.08%
CN(C)[C@@H](CCOc1cccc2ccccc12)c1ccccc1 [Dapoxetine HCl],45.6%,23%
Nc1nccc(Oc2ccc(NC(=O)c3c[nH]cc(-c4ccc(F)cc4)c3=O)cc2F)c1Cl,< 0%,51.4%
CC(=O)O[C@H]1CC[C@@]2(C)C(=CC[C@@H]3[C@@H]2CC[C@]2(C)C(c4cccnc4)=CC[C@@H]32)C1 [Abiraterone Acetate],< 0%,14%
CN(C)Cc1c(C(=O)NCCOc2ccc(C(=O)NO)cc2)oc2ccccc12,94.8%,91.9%
COc1cccc(Nc2c(C(N)=O)cnc3c(C)cc(S(=O)(=O)c4cccc(C(=O)N(C)C)c4)cc23)c1,18.9%,< 0%
O=C(N/N=C/c1ccc(O)c(O)c1)c1cc2ccccc2cc1O [Dynasore],37.3%,< 0%
NC(N)=Nc1nc(CSCC/C(N)=N/S(N)(=O)=O)cs1 [Famotidine],28.9%,21.8%
NC(=O)c1ccc(I)c([N+](=O)[O-])c1 [Iniparib (BSI-201)],11%,18.9%
C[N+]1(C)CCC(=C(c2ccccc2)c2ccccc2)CC1 [Diphemanil Methylsulfate],0.562%,12.1%
Oc1ncnc2[nH]ncc12 [Allopurinol],19%,12.2%
CC(C)Cc1ccc(C(C)C(=O)O)cc1 (stereo unspecified) [Ibuprofen],25.3%,12.8%
Cc1cc2c(F)c(Oc3ncnn4cc(OC[C@@H](C)O)c(C)c34)ccc2[nH]1,10.2%,29.3%

Structure (SMILES),growth inhibition [1],growth inhibition [2]
O=C1NC(=O)/C(=C/c2cccc(C(F)(F)F)c2)S1,45.3%,5.56%
CNC(=O)Nc1ccc(-c2nc(N3CC4CCC(C3)O4)c3cnn(C4CCC5(CC4)OCCO5)c3n2)cc1,70.4%,67.8%
O=C(Nc1c[nH]nc1-c1nc2ccc(CN3CCOCC3)cc2[nH]1)NC1CC1,82.5%,80.1%
COc1cc(Nc2nc3ccccc3nc2NS(=O)(=O)c2ccc(NC(=O)c3ccc(C)c(OC)c3)cc2)cc(OC)c1,30.5%,15.8%
CCCc1nc(C)c2c(=O)nc(-c3cc(S(=O)(=O)N4CCN(CC)CC4)ccc3OCC)[nH]n12 [Vardenafil HCl Trihydrate],30.4%,3.19%
C#C[C@]1(OC(C)=O)CC[C@H]2[C@@H]3CCC4=C[C@@H](OC(C)=O)CC[C@@H]4[C@H]3CC[C@@]21C [Ethynodiol diacetate],< 0%,8.71%
CCOC(=O)[C@H](CCc1ccccc1)N[C@@H](C)C(=O)N1Cc2ccccc2C[C@H]1C(=O)O [Quinapril HCl],< 0%,< 0%
COc1ccccc1N1CCN(CC(O)COc2cccc3ccccc23)CC1 (stereo unspecified) [Naftopidil DiHCl],8.77%,38.1%
CC(C)C[C@H](NC(=O)[C@H]1O[C@@H]1C(=O)O)C(=O)NCCCCN=C(N)N,51.1%,0.617%
Cn1cc(CNCC2CCN(c3ncc(C(=O)NO)cn3)CC2)c2ccccc21,100%,97.4%
COc1ccc(-c2nc(N3CCOCC3)c3sc(CN(C)c4ncc(C(=O)NO)cn4)cc3n2)cn1,100%,94.5%
C#CCC(Cc1cnc2nc(N)nc(N)c2n1)c1ccc(C(=O)N[C@@H](CCC(=O)O)C(=O)O)cc1 (stereo partly specified) [Pralatrexate],41.2%,18.4%
CCCCN(Cc1ccc(C(=O)NO)cc1)C(=O)Nc1ccccc1 [Nexturastat A],34.8%,8.02%
Cc1cc(Nc2cc(CN3CCOCC3)c3nc(C)c(Cc4ccc(Cl)cc4F)n3n2)n[nH]1,87.1%,73.8%
CN(C)CCC[C@@]1(c2ccc(F)cc2)OCc2cc(C#N)ccc21 [Escitalopram Oxalate],44.3%,19%
CN1CCN2c3ccccc3Cc3ccccc3C2C1 (stereo unspecified) [Mianserin HCl],99%,95%
